Test results taken from the supplement of paper PMC10126150.
Values marked as one replicate rest on one cluster of the flow cell; about a third of the high ones do not repeat.

System: ATP
Assay: switch fluorescence ratio, 500 uM ATP over buffer (Cy3 cluster intensity, sum of 5 cycles each) (fold (ratio)); higher = stronger signal-on switching upon ATP binding; sequences stand for … in TCGTCGGCAGCGTCAGATGTGTATAAGAGACAGTTTTTTTTTTTTTTTTTTTTTTTTT…TC
Details: aptamer strand: ATP DNA aptamer (quencher-CACCTGGGGGAGTATTGCGGAGGAAGG + anchor), 100 nM annealed; ATP concentration: 500 uM; one replicate
In short: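 Between each of five buffer/ATP cycles, the flow-cell was stripped with NaOH and re-annealed. Each cycle imaged Cy3-labelled switching-strand clusters, annealed to 100 nM quencher-labelled ATP aptamer on a modified Illumina MiSeq flow-cell, first in selection buffer and then after 15 min with 500 uM ATP at 22 °C. The fluorescence ratio is summed target-cycle over summed buffer-cycle Cy3 intensity per cluster, averaged per switch-domain sequence, with clusters outside 100-1000 RFU excluded.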
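Note: ATP exposure 15 min at 22 °C before imaging.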

Sequence	switch fluorescence ratio
TGACATATTT	0.99
ATCCGGTACA	0.978
TTATACCTTG	0.995
CAGAGGAAAT	1.02
AATTAGGGTT	0.955
GTCGGGAGCG	1.09
ATATGTAGGC	1.02
GTGTGAGGGA	0.971
TCCAGTCTTA	1.01
CATTCACGTC	1.02
CGCAAAAACG	1.13
AGGTTGGTCT	0.994
CCCAACCTAC	1.49
CGAAGCGGCC	4.04
TTTCCCTATG	1
AGCGATGATG	0.932
CATTAAGGC	1.01
GCATGAGAAC	0.967
ATATAAGACC	1.02
GCAGTTGACC	1.08
CGAGGAGACC	1.01
TATGTCATCA	0.968
CCTTCTATGG	1

Sequence	switch fluorescence ratio
TCTGTGGCGT	0.97
TTCAATTTGA	1.01
ACACGTAAAT	1.56
CCGGCTGAAA	1.28
CCTCTGAATT	3.15
ATGATAAC	1.01
CGGATCATTC	0.986
GACGGTAATG	1.08
TAGACCGAAC	1.5
TTTTCGAGAC	0.962
GAGTCCCGG	1.01
TGGGTGAGAA	0.977
ATGACCAAAT	1.02
TGGTTACAGC	0.967
CCGCTTCCG	1.2
TCTGATGGTT	0.972
TTCGTAGATG	1
ACCGCCTTTG	1.03
CCGAGGACGG	1.13
ATATAGCGAC	1.12
GGTGCACATT	0.998
CACGGAGACA	1.12
GGGTCAATGA	0.988

Sequence	switch fluorescence ratio
TGTCCAACTC	1.27
TCCTGGTAAC	1.02
ATCGGGTTCT	0.96
CGGTGAAAGA	1.04
AAAATGCCTT	0.981
TAGCATAGGA	1
CCTTTGTCGT	1.05
ATGGTGCCGC	0.958
TGTGCTAACA	0.964
ACCTAGGGGG	1.04
AGCATCTTGT	0.969
GCAGGATA	0.949
TCCGGACAGT	1.04
TATGCATGTT	1.05
GTACTAATGT	0.993
GGCATATGTG	1
CCATAGGTTT	1
GCACGGCGGT	1.02
GTTAGCCGGG	0.996
CCCGGGAGGA	1.02
CATCGAGCGT	1.01
GCATGGCTAC	1.04
GAAATTGGGC	0.94

Sequence	switch fluorescence ratio
GTAACGCAAG	1.07
AGGTCTGGAA	0.975
TACAGAAAGT	0.995
AGTATTATA	0.978
AAAAATAGAG	0.995
AATCATGAGG	1.02
GACGGAGGTA	1.09
TACATTCACA	1.26
CGCTATACAG	1.49
AGAAAGAAGA	0.999
ATAGGGTTAA	1.08
AAGTAAACAG	0.984
TGAGTTTAAG	0.975
CGGAGTTGTA	0.973
GACTCCCACG	1.01
GGGCACGAAA	1.03
GGTACTGC	0.988
TCAGGGCCCA	1.05
CCAAGTCCAA	1.13
CTTAGCCATT	1.02
AACTAAAGGA	1.01
ACAATTATG	0.983
TCATCGGGAG	1.17

Sequence	switch fluorescence ratio
ATTTAGATAT	1.04
CAATGTGTGT	0.985
TGGGCTGTTG	0.992
GATACCAAGA	1
TGCGCCTGTA	1.13
CATAAACCAT	0.996
AGACGGACTT	1.2
TGCTAGGTTC	1.02
CCCGGACTTC	1.05
TGGATGTGCG	0.989
CGGTATTTA	0.983
GTAAGGAATC	1.04
TAGCCGGTCA	1
AAACTCGTGC	1.06
CATCTTGCTA	1.12
ACTGCAGGCC	0.947
TTCTTGTACG	0.992
GCATTAAAGA	1.06
GCTCGCCTGC	1.02
CGTAAGAGAA	1.02
ATGGACAGCT	1.08
GACGTGATGG	1.28
TATGGCTT	0.987

Sequence	switch fluorescence ratio
TGAACTGAAT	1.11
CGAATCTTT	1.1
ATTCATGTA	1
CAACAATTCT	1.12
ATGTTGCGTA	0.95
CGGAGTTTGA	1.02
AATGGTTGTT	0.995
TAGATCGGGC	0.976
GTTGATCTTG	0.981
TTCTCGACGC	2.32
ACTGTAACCG	1.13
TATCCATATG	1.02
GGATTGTCAT	1.01
AAGATGAATA	0.997
AACCGTGAAC	1.27
ACGGATCAAC	1.14
GCGATGGCGT	1.02
AACGTATCCT	1.07
TACATTTCTT	0.994
TGACAGACTA	1.07
CTGCAGCTCG	1.17
GTTGTAAATA	1.04
GAAAAAGTAG	1.04

Sequence	switch fluorescence ratio
CTAATTCGTT	1
TGGACTGTTG	0.969
GAGCTTAGGC	0.896
TTTCAGAGCT	1.02
TTATTGAGAC	1.01
CAGTCGAGGC	1.01
GTGCGGAAGC	0.973
CTAGAAGTTA	0.994
CGCCTTTTCC	1.15
AAACGGGACC	1.09
TAATCATGCA	0.979
TTCAGGGATA	0.992
GCCATAGTG	1.04
CAGTGGCCTT	1.03
TATAGTGGTA	1.04
AAGATGTGTA	0.989
GACATAAGGT	0.973
TTTCCTCGTC	1.19
TGATTCAGAC	0.974
